# The full ranking holds about 81,000 sequences; the median of “one-hybrid fitness for binding parS DNA” is about -0.17, and the highest 2% start at about 0.51. This is one part of the list.
# B1: Caulobacter ParB omega fusion; a variant is named by its letters at X, in order, B8GW30 (parent)
# chain: MESVVVGEPGMSEGRRGLGRGLSALLGEVDAAPAQAPGEQLGGSREAPIEILQRNPDQPRRTFREEDLEDLSNSIREKGVLQPILVRPSPDTAGEYQIVAGERAWRAAQRAGLKTVPIMVRELDDLAVLEIGIIENVQRADLNVLEEALSYKVLMEKFERTQENIAQTIGKSXSHVANXMRLLXLPDEVQSYLVSGELTAXHARAIAAAADPVALAKQIIEGGLSVRETEALARKAPNLSAGKSKGGRPPRVKDTDTQALESDLSSVLGLDVSIDHRGSTGTLTITYATLEQLDDLCNRLTRGI
# Variants of: B1
# Experiment: one-hybrid fitness for binding parS DNA (scaled: cognate 1, non-cognate 0); higher = stronger binding
# Details: with parS DNA site
# Method in brief: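 Fitness is the rescaled log change in variant-to-wild-type read ratio, measured by Illumina sequencing of plasmids before and after bacterial one-hybrid selection. The scale puts cognate at 1 and non-cognate at 0. Selection of Caulobacter ParB libraries, four specificity codons randomised, took place in E. coli USO with a HIS3 reporter, site 19 bp from the promoter, over 48 hours at 37°C on M9-minus-histidine with 0.1 mM IPTG and 5 mM 3-AT.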
row,Variant,one-hybrid fitness for binding parS DNA
1,AASW,≤ 0.2
2,TLYM,≤ 0.2
3,HKKR,≤ 0.2
4,TYYS,≤ 0.2
5,HGPA,≤ 0.2
6,NYRG,≤ 0.2
7,NWKY,≤ 0.2
8,DFYT,≤ 0.2
9,GSFH,≤ 0.2
10,ESQG,≤ 0.2
11,KHQE,≤ 0.2
12,TTIG,≤ 0.2
13,MSNM,≤ 0.2
14,TCAL,≤ 0.2
15,IGSG,≤ 0.2
16,SNMT,≤ 0.2
17,PDSR,≤ 0.2
18,DVES,≤ 0.2
19,KHSG,≤ 0.2
20,MSHG,≤ 0.2
21,YTVS,≤ 0.2
22,IAMY,≤ 0.2
23,PRKD,≤ 0.2
24,NAIS,≤ 0.2
25,HIGV,≤ 0.2
26,SRHT,≤ 0.2

row,Variant,one-hybrid fitness for binding parS DNA
1,PHQM,≤ 0.2
2,QHYH,≤ 0.2
3,YSGC,≤ 0.2
4,EYTS,≤ 0.2
5,CITI,≤ 0.2
6,RFRH,0.219
7,VSWK,≤ 0.2
8,KPER,≤ 0.2
9,YKRC,≤ 0.2
10,CLTR,≤ 0.2
11,RIEP,≤ 0.2
12,QYYG,≤ 0.2
13,LRNC,≤ 0.2
14,QLLH,≤ 0.2
15,QCLF,≤ 0.2
16,KVAC,≤ 0.2
17,NKGG,≤ 0.2
18,SHLD,≤ 0.2
19,AHEC,≤ 0.2
20,EMNA,≤ 0.2
21,KRQC,≤ 0.2
22,TISL,≤ 0.2
23,GMGC,≤ 0.2
24,WYHR,≤ 0.2
25,AKWQ,≤ 0.2
26,QQSG,≤ 0.2

row,Variant,one-hybrid fitness for binding parS DNA
1,CEEG,≤ 0.2
2,VHHL,≤ 0.2
3,PVHW,≤ 0.2
4,ITGH,≤ 0.2
5,QAMR,≤ 0.2
6,QLSP,≤ 0.2
7,YNPR,≤ 0.2
8,LRPD,≤ 0.2
9,PSRP,≤ 0.2
10,VRNF,≤ 0.2
11,AGSS,≤ 0.2
12,QICL,≤ 0.2
13,QCHR,≤ 0.2
14,YWKR,≤ 0.2
15,LEAD,≤ 0.2
16,EKKS,≤ 0.2
17,RCLG,1.01
18,PDQA,≤ 0.2
19,AFRR,≤ 0.2
20,TKEV,≤ 0.2
21,TTRM,≤ 0.2
22,NAGL,≤ 0.2
23,SLAN,≤ 0.2
24,TNVC,≤ 0.2
25,RQAH,≤ 0.2
26,RDRS,0.236

row,Variant,one-hybrid fitness for binding parS DNA
1,NKLG,≤ 0.2
2,KPPS,≤ 0.2
3,HPWL,≤ 0.2
4,HVAF,≤ 0.2
5,PYLG,≤ 0.2
6,QPYA,≤ 0.2
7,PQIE,≤ 0.2
8,PGGR,≤ 0.2
9,DTFF,≤ 0.2
10,MVPG,≤ 0.2
11,QYNV,≤ 0.2
12,HAKM,≤ 0.2
13,TFLI,≤ 0.2
14,PIDR,≤ 0.2
15,KDEM,≤ 0.2
16,RHLS,0.978
17,VEQK,≤ 0.2
18,GDEG,≤ 0.2
19,RMRM,0.379
20,YIHR,≤ 0.2
21,PWPY,≤ 0.2
22,KGST,≤ 0.2
23,YDTQ,≤ 0.2
24,IAET,≤ 0.2
25,GNNR,≤ 0.2
26,FTSC,≤ 0.2

row,Variant,one-hybrid fitness for binding parS DNA
1,TWSR,≤ 0.2
2,PRCL,≤ 0.2
3,TYGV,≤ 0.2
4,HVPT,≤ 0.2
5,SSRP,≤ 0.2
6,TISP,≤ 0.2
7,KHNT,≤ 0.2
8,NYHC,≤ 0.2
9,TIQC,≤ 0.2
10,KTKK,≤ 0.2
11,QPVA,≤ 0.2
12,DRQL,≤ 0.2
13,PDTG,≤ 0.2
14,CKYT,≤ 0.2
15,NCGG,≤ 0.2
16,AHRC,≤ 0.2
17,RWPA,≤ 0.2
18,TVCR,≤ 0.2
19,PRMY,≤ 0.2
20,CSFN,≤ 0.2
21,QQKA,≤ 0.2
22,SYCW,≤ 0.2
23,KTAY,≤ 0.2
24,QCRM,≤ 0.2
25,CHAI,0.234
26,QHCV,≤ 0.2

row,Variant,one-hybrid fitness for binding parS DNA
1,QSGQ,≤ 0.2
2,TDYV,≤ 0.2
3,KNSI,≤ 0.2
4,IAAL,≤ 0.2
5,TTPM,≤ 0.2
6,MDPS,≤ 0.2
7,SVTG,≤ 0.2
8,NRMR,≤ 0.2
9,QSYC,≤ 0.2
10,YIRS,≤ 0.2
11,SEPD,≤ 0.2
12,FLMG,≤ 0.2
13,CAGI,≤ 0.2
14,SWHS,≤ 0.2
15,WSQP,≤ 0.2
16,AGTD,≤ 0.2
17,RSPP,≤ 0.2
18,QLNN,≤ 0.2
19,RGTS,0.863
20,AMQG,≤ 0.2
21,NITS,≤ 0.2
22,HIQC,≤ 0.2
23,MSRF,≤ 0.2

# Source: a collection of fitness landscapes (doi:10.1016/j.celrep.2020.107928)
